The full ranking holds about 33,000 sequences; the median of “E-score (-0.5 to 0.5)” is about -0.043, and the highest 2% start at about 0.37. The list shows a part of the results.
Biological target: T1, Upc2 (UniProt Q12151)
T1 sequence: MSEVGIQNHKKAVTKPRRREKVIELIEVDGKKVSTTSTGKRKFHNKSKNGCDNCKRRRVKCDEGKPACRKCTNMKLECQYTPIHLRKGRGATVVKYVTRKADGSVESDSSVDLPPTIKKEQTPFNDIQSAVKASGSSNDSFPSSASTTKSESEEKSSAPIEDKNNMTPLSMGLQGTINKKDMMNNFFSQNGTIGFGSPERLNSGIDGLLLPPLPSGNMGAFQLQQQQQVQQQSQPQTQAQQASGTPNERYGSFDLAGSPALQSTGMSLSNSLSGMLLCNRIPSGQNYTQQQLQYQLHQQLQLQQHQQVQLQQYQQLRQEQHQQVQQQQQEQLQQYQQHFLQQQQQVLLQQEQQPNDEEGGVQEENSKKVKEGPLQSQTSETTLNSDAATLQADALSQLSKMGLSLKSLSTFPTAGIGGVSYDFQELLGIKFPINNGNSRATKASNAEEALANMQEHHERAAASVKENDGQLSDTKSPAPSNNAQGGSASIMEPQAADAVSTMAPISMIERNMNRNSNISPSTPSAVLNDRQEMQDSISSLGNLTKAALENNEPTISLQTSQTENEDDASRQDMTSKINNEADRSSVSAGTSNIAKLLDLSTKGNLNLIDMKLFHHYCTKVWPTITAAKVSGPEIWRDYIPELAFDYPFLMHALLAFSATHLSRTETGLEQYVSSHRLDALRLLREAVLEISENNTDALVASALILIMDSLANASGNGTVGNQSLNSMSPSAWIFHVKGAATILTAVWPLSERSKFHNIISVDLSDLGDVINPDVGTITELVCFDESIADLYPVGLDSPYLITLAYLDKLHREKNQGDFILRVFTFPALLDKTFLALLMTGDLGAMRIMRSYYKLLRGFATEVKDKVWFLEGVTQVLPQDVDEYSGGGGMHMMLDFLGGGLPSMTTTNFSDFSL
Test: PBM E-score (8-mer binding enrichment) (E-score (-0.5 to 0.5)); higher = stronger / more preferred TF binding; most listed sequences are background and not binding sites
Conditions: protein concentration: 200 nM; construct: GST-full length
Procedure, shortened: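 The E-score, a modified Wilcoxon-Mann-Whitney statistic, was computed by the Universal PBM Analysis Suite for every ungapped eight-base word pooled with its reverse complement. Scans behind it were normalised with masliner after bound GST-tagged yeast transcription factors were detected with fluorescent anti-GST. The proteins, at about 100-200 nM, had been applied to universal all-10-mer Agilent arrays made double-stranded by primer extension.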

Sequence	PBM E-score
ATGTGCGG	-0.209
GGTACTGA	-0.0598
CGATTTAG	0.114
GGCACTAC	-0.0625
AAGTCGGT	-0.0727
GCGCTAAA	0.085
GTTCGTTA	0.403
AGAACACG	-0.0136
AACGCGTA	0.252
GGCCGAGA	0.0287
TGCTGGAA	-0.0685
ACCTTGCC	-0.157
ACGCCAAC	0.0836
GGCGTTGA	-0.0389
CAACACAG	-0.188
GTTACTGA	0.112
GACATGGC	-0.0692
CATACCCG	0.0416
GGAATCAA	-0.131
ACACGCCC	-0.0613
CCAAGTGC	-0.247
GACCCGGA	-0.105
ATAGTGAA	-0.0887
CCCGAGCA	-0.127
CGGACAAC	0.00639

Sequence	PBM E-score
GAGTACAA	-0.0557
CCAGAGTC	-0.0405
GTAACGCA	0.0913
ATTCAGTA	0.16
ACACGGGT	-0.0399
ATGTCTTA	-0.0704
CCAGCTAA	-0.0877
CGAACGGA	0.223
CACATGAC	-0.134
AATAATGT	-0.123
AAAAGCTG	0.0411
ACAAACAT	-0.0687
TCCCAAGA	-0.155
GTAATGCA	-0.201
GACCGGCA	-0.082
GTGATGAA	-0.0825
ACCTACAC	-0.152
ACATTACC	-0.232
ACGTAGCC	0.0382
ATTTAAGA	0.00342
GGGCTTAC	-0.154
AAGGTGTG	-0.21
CCCCTCAA	-0.149
GTACCCCA	-0.0164
CTACGTCC	-0.092

Sequence	PBM E-score
ACAGGGCT	-0.162
CCGGGGAC	-0.22
GTCTATCA	-0.0813
ACAGGAAA	0.074
ACCTCGAA	0.111
ACATGATA	0.0413
ATTAGCCA	0.0248
GCAAGTGA	-0.185
TAGGACAA	-0.0823
AGGTTACA	-0.196
GCTGTTCA	-0.0377
ACAGAATA	0.139
GAATACAC	-0.047
GTGCAGCA	-0.19
CATGGGCA	-0.125
AATTCACG	0.164
CCCGTGGC	-0.137
GCCACCTA	-0.0598
AATCCAAA	-0.00912
AACATCCC	-0.146
GGGACGCA	-0.259
AAGTAGGG	-0.217
CAACCTAC	-0.123
AACTTTTC	0.0238
AGGGCCGG	-0.317

Sequence	PBM E-score
AACTGGGC	-0.0855
CGCTCTAG	-0.2
CAGGACGA	-0.3
AGGTTCCC	-0.0772
AAACTGCA	-0.00674
CAGTATTA	0.0434
ACGAGAAT	0.396
AATTGACC	0.201
CGCACTAG	-0.0981
CTATCCCC	-0.301
AACTAACA	0.101
AATATCCG	0.228
GTCAGTAA	0.0334
ACCGGAAG	0.0898
AGAGCTAT	-0.132
CATCCCTA	-0.283
CCTACTGC	-0.305
GTCTACAC	0.0437
CCCTATCA	-0.325
ACAATTGT	-0.0371
ACCTATGA	-0.16
AGTAACCA	-0.164
AACCACTC	0.0649
CGAGCGAC	0.237
AAGCATCT	-0.0303

Sequence	PBM E-score
AATCCCGG	-0.113
GGCAGCAA	-0.0774
ATGCGACA	0.226
ACACCCTC	-0.0945
GGCCGGCC	-0.0723
GCGAACGA	0.418
CTTCTGCA	-0.144
CTCCAGGC	-0.304
CTTGCGGC	-0.0451
AACGCACG	0.129
GAATCTGA	-0.0638
TCACACAA	0.00014
ACAATTTA	-0.0419
CTTTCCAA	-0.12
AAGCACAT	-0.0339
AACTCGGA	-0.0443
AGACGTCA	-0.0406
AAGTTTGA	-0.182
CACGAGCC	0.0758
ACGTCCGA	0.0345
AGTCTTAC	0.0844
AGCTTGCA	-0.184
AAGATGTC	-0.212
AATCGTGT	0.169
CGGCAGCC	-0.182

Sequence	PBM E-score
AATCTTAC	0.176
AGTCCATA	-0.225
GATCCGAC	0.105
ACTCGGCT	-0.0276
CATGGTGG	-0.309
CGTATTCC	0.317
GCAGACCC	-0.228
ACCCGACG	0.118
CATAGGAG	-0.26
ACTAACCA	-0.0101
GCGCCTAA	-0.0731
AGAGATTA	0.0334
AGGGGGAG	-0.162
AGCCGTTG	-0.121
ACTGAAGA	-0.198
ATCTGAAT	-0.0917
CCGTTGCC	-0.183
CCCGGCGC	-0.105
CACCGAAA	0.0663
CTCACAGC	-0.186
ACCAATTG	-0.185
ATCTGCGG	-0.0675
AAATCCTA	-0.0215
AGAACCGG	-0.121
ACGCCTCC	-0.169

Sequence	PBM E-score
ATCCCCAG	-0.186
AGATACCA	-0.0472
AGCGGAAA	0.0457
ACTCTCAT	0.0282
CCATGTAA	-0.0287
GGCTGTCA	-0.216
ACAGGGAG	-0.171
CCGAACTC	0.065
AGTGCAGG	-0.112
TCAGGCCA	-0.217
AGTGTTAG	-0.0186
AGTCATTG	-0.135
CCACGGCA	-0.067
TAAGGCAA	0.0186
ATACCTTA	0.0345
CCTTCTCC	-0.226
CCAACGTC	0.0256
CTCAATTA	-0.0164
CGACACGA	0.224
AACGAAGC	0.408
ACCTGCAT	-0.186
CTAATAAG	0.0325
ATCCTCAT	-0.0808
AGGCAGTC	-0.0951
GGTCCGCA	-0.087

Sequence	PBM E-score
AAACCTGT	0.225
ACTAGCAT	-0.158
ACATATTC	-0.0293
CAGACGGA	-0.13
CGCATACC	0.212
AAGGCATG	-0.0289
AGGCGTAA	0.0563
AGCAACCG	-0.00088
CATCAGGG	-0.232
AACGGGCT	0.191
GGTGATTA	-0.141
ACCCTCCA	-0.254
AATCGGCC	-0.133
CCGATCCA	-0.178
AAAGTTTC	-0.00066
GAGTCGCA	0.0248
CAGGTGAG	-0.277
GGCAATGA	-0.0827
CACGCTGG	-0.234
CAAGTACA	-0.101
CTGACTTC	-0.125
GGCCCCAC	-0.202
AAGGATTA	-0.0641
GTACATTA	0.298
AGGTTGAC	-0.178

Sequence	PBM E-score
AACTTGCG	0.258
ATCAGACA	-0.205
CTAGTTAC	0.0625
GTCAAACA	0.0917
CCCATGGC	-0.25
AATTTGCA	-0.216
GCGTAACA	0.118
AGTTTGTG	-0.0631
CTCATGAA	-0.00906
ATAAACAA	0.0523
CAGGGGCA	-0.067
CTCCTTCA	-0.0755
AGGGATAT	-0.271
CACACTAC	-0.119
AATTTAAC	0.228
CCGTATCC	0.331
CATGTGCC	-0.0558
GTCCCGTA	0.25
ATCCACGG	0.00946

Source: the supplement of paper PMC3334620
